The text below walks through data of PMC13541613.

The entries are a selection whose mix differs from that of the whole data set. At the low end of the ranking the order means little.

The assay concerns the target ZNF721 DBD1 (UniProt Q8TF20-2). As to the kind of experiment: HT-SELEX. Conditions: 20 mM HEPES pH 7, 140 mM KCl, 5 mM NaCl, 1 mM K2HPO4, 2 mM MgSO4, 100 uM EGTA, ZnSO4, 0.1% Tween20; room temperature, 1 h; high values mean tight binding; double strand, one strand shown.
In turn, CAGTGTTACC displayed a binding signal (relative 10-mer count) of 0.000642.

In turn, AAACAGGGGT returned a binding signal (relative 10-mer count) of 0.000596.

AAACAGCATC yielded a binding signal (relative 10-mer count) of 0.000505.

In turn, ACAGCATATC gave a binding signal (relative 10-mer count) of 0.000367.

For the sequence AAAACAGGGG, the binding signal (relative 10-mer count) stood at 0.000642.

CCCTCCCTCC: the binding signal (relative 10-mer count) came out at 0.0107.

For AAAAAAAGAG, the binding signal (relative 10-mer count) was determined as 0.00949.

In turn, AAACAAACAG came in with a binding signal (relative 10-mer count) of 0.000688.

GGGTGGGTGA: the binding signal (relative 10-mer count) came out at 0.00505.

In turn, AGACACTGCT returned a binding signal (relative 10-mer count) of 0.000183.

In turn, CAAAGCAGCA displayed a binding signal (relative 10-mer count) of 0.000642.

As for CCAAAAAAAA, the binding signal (relative 10-mer count) was 0.0171.

Sequence AAAAACAGGG showed a binding signal (relative 10-mer count) of 0.000596.

ACAAAAACAG displayed a binding signal (relative 10-mer count) of 0.00078.

With ATAAAACAGC, the binding signal (relative 10-mer count) was determined as 0.000413.

Sequence CCCCACCCCG came in with a binding signal (relative 10-mer count) of 0.00784.

As for CTCCACCCCC, the binding signal (relative 10-mer count) was found to be 0.00812.

As to AAAACAGGAT, the binding signal (relative 10-mer count) was determined as 0.000505.

Sequence AAGCAGTGTC came in with a binding signal (relative 10-mer count) of 0.000229.

For the sequence AAACAGCATT, the binding signal (relative 10-mer count) turned out to be 0.000138.

Consider AAACAGCAGT, for which the binding signal (relative 10-mer count) came out at 0.000138.

CAAAGCAGCG: the binding signal (relative 10-mer count) turned out to be 0.000505.

Take CAGCATGCCC: the binding signal (relative 10-mer count) worked out at 0.000505.

With ATGCTGTTTC, the binding signal (relative 10-mer count) turned out to be 0.000413.

In the case of AAAAACAGCG, the binding signal (relative 10-mer count) came to 0.000505.

Take AAAAAAAAGG: the binding signal (relative 10-mer count) was found to be 0.00477.

Sequence AACAAAACAG came in with a binding signal (relative 10-mer count) of 0.000826.

AACAAACAGC: the binding signal (relative 10-mer count) was 0.000642.

As to AAAAGCAGCG, the binding signal (relative 10-mer count) worked out at 0.000917.

ACAAAACAGC showed a binding signal (relative 10-mer count) of 0.000826.

In turn, CCGCCCACCA registered a binding signal (relative 10-mer count) of 0.00477.

AAAGAAACAG yielded a binding signal (relative 10-mer count) of 0.000138.

Sequence ACAAAGCAGC showed a binding signal (relative 10-mer count) of 0.000642.

Consider ACAGCGTATC, for which the binding signal (relative 10-mer count) came out at 0.000413.

CAGCATGACC came in with a binding signal (relative 10-mer count) of 0.000413.

AACACTGCTT: the binding signal (relative 10-mer count) was 0.000505.

In the case of CAGTGTATCC, the binding signal (relative 10-mer count) stood at 0.000459.
